# PubChem BioAssay (NCI)
#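 Compound exposure: 48 hours, 5 concentrations, 96-well plates. The concentration for 50% growth inhibition is given as GI50. TGI: total growth inhibition.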
# Tested on: NCI-H322M lung
# Test: NCI anticancer screen, dose series, 48 h
SMILES,TGI [µM],GI50 [µM]
CCC(C(=O)c1ccccc1)C(CCCC(=O)Nc1c(C)cccc1C)N=O (centres undefined),> 100,
COC1=C(Br)C(=O)C2=C(C1=O)C1C3=C(C(=O)C=CC3=O)C2c2ccccc21 (centres undefined),89.4,36.1
Nn1c(Cc2ccccc2)n[nH]c1=O,> 100,
CCN(CC)CCCC(C)NC(=O)c1ccc2c(c1)C(=O)c1ccccc1C2=O (centres undefined),56.7,
NC(=O)CC(N=C1C(=O)OC(C(O)CO)C1=NC(CC(N)=O)C(=O)O)C(=O)O (centres undefined),> 100,
CSc1ncnc2c1CCN2,> 100,> 100
c1ccc(C(CCN2CC3CCC(CC3)C2)c2ccccc2)cc1,> 100,
COc1cc2c(cc1OCCCCOc1ccc(-c3nc4ccccc4s3)cc1)N=C[C@@H]1CCCN1C2=O,8.81,2.7
CCCCCCCCCCCCCCCCCCOCC(COP(=O)([O-])OCC[N+](C)(C)C)OC (centres undefined),> 74.4,
CC(=O)OCC1OC(O/C=C(\CN=[N+]=[N-])C(C)=O)C(OC(C)=O)C(OC(C)=O)C1OC(C)=O (centres undefined),48.3,
CC(NC(C#N)CC12CC3CC(CC(C3)C1)C2)c1ccccc1 (centres undefined),> 100,
CC(=O)O[C@H]1[C@@H](OC(C)=O)C(C)(C)/C=C/[C@H](C)C(=O)[C@@]2(OC(C)=O)C[C@@](C)(OC(C)=O)[C@H](OC(C)=O)[C@@H]2[C@H]2OC(=O)CC[C@@]2(OC(=O)c2ccccc2)[C@@H]1OCC(C)C,> 100,
Cc1ccc2c(c1)CNc1ccc(C)cc1CN2,> 100,
Cc1cccc(C)c1NC(=O)CCc1n[nH]c(=S)o1,> 100,
CN1CCN(c2ccc(C(=O)Nc3cc(-c4cccc(NS(=O)(=O)c5ccccc5)c4)[nH]n3)cc2)CC1,22.1,9.4
CC(=O)NC(Cc1ccc(OP(=O)(OCc2ccc([N+](=O)[O-])o2)N(C)CCCCCl)cc1)C(=O)NC(C)c1ccc(OCC2CCCCC2)c(C(N)=O)c1 (centres undefined),21.2,
Nc1ncnc2c1cnn2Cc1ccc(Cl)cc1,> 100,
O=[N+]([O-])c1c2nc3n(c2cc2c1nc1n2CCC1)CCC3,> 100,
COc1cc(/C=C(\OC(C)=O)c2ccc3c(c2)OCO3)cc(OC)c1OC,73.8,
Cc1[nH]nc2c1N=C(c1ccccc1Cl)c1cc([N+](=O)[O-])ccc1N2,> 25,> 25
Cc1ccc(Oc2ccc([N+](=O)[O-])cc2[N+](=O)[O-])c(C)c1,> 100,
O=C(c1ccc(Cl)cc1)c1ccc(OCCSCCCCCCCCCCSCCOc2ccc(C(=O)c3ccc(Cl)cc3)cc2)cc1,> 100,
C=C1C(=O)O[C@H]2[C@H]1CC/C(Cn1cc(-c3cc(C)c(C)cc3C)nn1)=C\CC[C@@]1(C)O[C@@H]21,23.6,11.1
C=CCN(c1cc(OC)c2[nH]cc(C)c2c1[N+](=O)[O-])S(C)(=O)=O,> 100,

SMILES,TGI [µM],GI50 [µM]
O=C(Nc1cccc(-n2cc(-c3ccncc3)c(-c3ccc(O)c(Cl)c3)n2)c1)Nc1cccc(C(F)(F)F)c1,7.87,2.44
COc1cc2c(c(OC)c1OC)-c1ccc(OC)c(=O)cc1[C@@H](N(C)C=O)CC2,2.39,
CC(NC(=O)C(N)CC(=O)O)NC(=O)N(C)C(C)(C)C (centres undefined),> 100,
COc1ccccc1NC(=O)O/N=C(/Cl)C(C)C,26.1,
Cc1nc(C(N)=S)sc1C(=O)C/C(=N/N)C(=O)Nc1ccc(Cl)cc1,> 100,
Oc1ccc(C#CCOc2ccccc2)cc1CNCCN(Cc1ccccn1)Cc1ccccn1,2.37,0.603
CN(C)CCCn1c2nc(=O)[nH]c(=O)c-2nc2cc(Cl)c(Cl)cc21,13.8,3.87
CC/C=C/c1cc2cc[nH]c2c2c1C(C)C[C@@H]2C (some centres undefined),> 100,
CC(=O)/C=C/c1ccc(C)cc1,> 100,
N#Cc1nc(CCC(c2nc(C#N)c(N)o2)N2C(=O)c3ccccc3C2=O)oc1N (centres undefined),> 100,
O=c1cc(N=Nc2ccc(Cl)cc2)[nH]c(=O)[nH]1,19.6,
S=C(Nc1ccccn1)Nc1ccccc1Cl,> 100,
O=C(N/N=C\c1ccccc1)Nc1cccc2ccccc12,> 100,
COc1cc(OC)c(C(=O)/C=C/c2cccc(OC(C)=O)c2)cc1CC=C(C)C,> 50,21.4
CS(=O)(=O)OCCN(CCOS(C)(=O)=O)c1ccc(C=O)cc1,37,
c1ccc(C2=NCCc3cc4c(cc32)OCO4)cc1,> 100,
C=CCn1cc(C(=O)NC(=O)NCCCCCOC(=O)CCCCCCCCCCC(=O)OCCCCCNC(=O)NC(=O)c2cn(CC=C)c(=O)n(C)c2=O)c(=O)n(C)c1=O,> 100,
CC(C)C1CC[C@H](C)C[C@@H]1OC(=O)C(C(=O)O[C@H]1C[C@@H](C)CCC1C(C)C)C(O)[C@@H]1OC(C)(C)O[C@H]1C1COC(C)(C)O1 (some centres undefined),38,
Cc1ccc(S(=O)(=O)N2CCNCCN(S(=O)(=O)c3ccc(C)cc3)CCN(S(=O)(=O)c3ccc(C)cc3)CC2)cc1,> 100,
Clc1nc(Cl)c(CBr)c(Cl)n1,30.8,
S=c1nc(N2CCCCC2)ss1,> 100,
COC(=O)c1ccccc1C1CN=NC12Cc1cccc(C)c1C2=O (centres undefined),> 100,
COc1ccc2c(c1)C1(C(=O)N2)C(C#N)=C(c2ccccc2)Nc2c1c(-c1ccccc1)nn2-c1ccccc1 (centres undefined),18.8,5.58
C(=C\c1cc(-c2ccc3ccccc3n2)nc2ccc3ccccc3c12)/c1ccc2ccccc2n1,> 100,
